Experimental data from PubChem BioAssay AID686979 (National Center for Advancing Translational Sciences (NCATS), 2013).
“And” between values parts separate entries of the source, which are not always exact repeats. Equal entries are not always repeated. Out of some 420,000 compounds screened, about 50,000 (12%) were called active. The inconclusive results got no clear call from the source; some entries with a clear call stand among them for comparison. Calls follow the shape of the dose curve; as a rule, active = well fitted inhibition curve with a large enough effect; inconclusive = small, poorly fitted or top-dose-only effect; inactive = flat fitted curve, though single readings scatter. A potency beside an inconclusive call is a rough fit, not a confirmed value.

Assay: qHTS for Inhibitors of human tyrosyl-DNA phosphodiesterase 1 (TDP1): qHTS in cells in presence of CPT; also: nearly all actives have a fitted effect of over 55% in size
Settings: chicken DT40 Tdp1-/-;hTDP1 cells + 20 nM CPT, ATP luminescence, 48 h; activity change, negative = growth inhibition: at 46.2 µM (top of the series)
In short: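 Cell growth measured by CellTiter-Glo luminescence after a minimum 48 h, 37 C compound exposure with 20 nM CPT in Tdp1-knockout DT40 cells stably expressing hTDP1, seeded 400/well; qHTS titration format.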
% is scaled to controls: 0 for no effect and ±100 for the full control effect; potency is read from the fitted curve at half-maximal effect; tags tell the direction and shape of the fitted curve.

| SMILES | Potency | activity change, negative = growth inhibition |
| --- | --- | --- |
| Cc1ccc(Nc2ncnc3c2nc2n3CCCC2)c(Br)c1 | inconclusive: 29.1 µM [inhibitor, single point] | – |
| CC(=O)Nc1ccc(NC(=O)C(C)OC(=O)C2CCCCC2)cc1 (stereo unspecified) | inactive | – |
| CC(=O)N[C@H]1[C@H]([C@H](O)[C@H](O)CO)OC(C(=O)O)=C[C@@H]1N=C(N)N | inactive | – |
| COC(=O)c1ccc(Cn2nnc3c(=O)[nH]c(C4CCCN(S(=O)(=O)c5ccccc5)C4)nc32)cc1 (stereo unspecified) | inconclusive: 20.6 µM [inhibitor, single point] | – |
| Cc1cc(C)c(C(=O)c2ccccc2)c(C)c1 | inconclusive: 32.6 µM [inhibitor, single point] | – |
| CCOc1cccc(-c2nn(-c3ccccc3)cc2/C=C(/C#N)C(=O)NCCCn2ccnc2)c1 | inconclusive: 23.1 µM [inhibitor, single point] | – |
| CCCCN1C(=O)C(O)(CC(=O)c2ccccc2OC)c2ccccc21 (stereo unspecified) | inactive | – |
| CCOC(=O)c1c(NC(=O)CC)sc(C(C)=O)c1C | inconclusive: 14.6 µM [inhibitor, partial curve] | – |
| O=P1(NC2CCCC2)OCC2(CO1)COP(=O)(NC1CCCC1)OC2 (stereo unspecified) | inactive | – |
| COc1ccccc1NC(=O)c1cc2c(CO)cnc(C)c2oc1=Nc1ccc(OC)c(OC)c1 | active: 9.2 µM | – |
| COCCCN(CC(=O)Nc1ccc(F)cc1)S(=O)(=O)c1cccs1 | inactive | – |
| COc1ccc2nc(N(Cc3cccnc3)C(=O)COc3ccccc3)sc2c1 | inactive | – |
| Cc1ccc2cc(CN(CC(C)C)S(=O)(=O)c3ccccc3)c(=O)[nH]c2c1 | inconclusive: 18.4 µM [inhibitor, single point] | – |
| COc1ccccc1C(c1nnnn1C1CCCC1)N1CCN2CCCC2C1 (stereo unspecified) | inactive | – |
| C[C@H](NC(=O)CC[C@H]1O[C@@H](n2ccc(=O)[nH]c2=O)[C@H](O)[C@@H]1O)C(=O)O | inactive | – |
| Cc1ccccc1N(CC(=O)N1CCCCCC1)S(C)(=O)=O | inactive | – |
| CN1/C(=C/c2cc[n+](C)c3ccccc23)C=Cc2ccccc21 | active: 0.461 µM | – |
| COC(=O)c1cc(S(=O)(=O)N2CCN(c3ccc(F)cc3)CC2)cn1C | inconclusive: 13 µM [inhibitor, partial curve] and inconclusive: 29.1 µM [inhibitor, single point] | – |
| Clc1ccc(Nc2ncnc3c2cnn3-c2ccccc2)cc1 | inconclusive: 29.1 µM [inhibitor, single point] | – |
| COC(=O)c1ccccc1NC(=O)Nc1cccs1 | – | inconclusive: -34.1% [inhibitor] |
| CN1C(=O)C(C)(C)c2cc(S(=O)(=O)NCc3ccc(Cl)cc3)ccc21 | inconclusive: 16.4 µM [inhibitor, single point] | – |
| CCc1ccccc1NC(=O)N1CCC2(CC1)Oc1ccccc1C(=O)N2Cc1ccccc1F | inconclusive: 29.1 µM [inhibitor, single point] | – |
| Cc1ccc(S(=O)(=O)N(C)c2ccc(OC(=O)c3cc(=O)[nH]c4ccccc34)cc2)cc1 | inconclusive: 29.1 µM [inhibitor, single point] | – |
| C#CCOCCOCCOCCNc1nc(N2CCN(C(=O)CCCCCCCCCCNC(=O)Cn3cc(CCCCCN)nn3)CC2)nc(N2CCN(C(=O)CCCCCCCCCCNC(=O)[C@H](CO)n3cc(CCCCCN)nn3)CC2)n1 | inconclusive: 20.6 µM [inhibitor, single point] | – |

| SMILES | Potency | activity change, negative = growth inhibition |
| --- | --- | --- |
| COC(=O)c1ccccc1OCC(=O)N1CCN(c2ccc(OC)cc2)CC1 | inconclusive: 23.1 µM [inhibitor, single point] | – |
| CCCC(CCC)C(=O)Nc1cccc(-c2nc3cccnc3s2)c1 | inactive | – |
| CCN1CCN(c2ccc(S(=O)(=O)N3CCCCC3)cc2NC(=O)/C=C/c2ccc(Cl)cc2)CC1 | inconclusive: 20.6 µM [inhibitor, single point] | – |
| O=C(Nc1nc2c(s1)CCCC2)c1cccs1 | inconclusive: 13 µM [inhibitor, single point] | – |
| CC(=O)c1ccc(S(=O)(=O)Nc2ccc(C(=O)N(C)CC(=O)Nc3cccc(C)c3C)cc2)cc1 | inactive | – |
| CCn1c(SCC(=O)c2cc(C)n(CC3CCCO3)c2C)nc2ccccc21 (stereo unspecified) | inconclusive: 35.5 µM [inhibitor, single point] | – |
| COc1ccc(Cl)cc1NC(=O)CCN1CCOCC1 | inactive | – |
| CC(C)(C)C1CCC(OC(=O)C[N+]2(C)CCCCC2)CC1 (stereo unspecified) | inconclusive: 18.4 µM [inhibitor, single point] | – |
| CSc1sc(-c2ccnc(SCCS(C)(=O)=O)n2)c(-c2ccccc2)c1C#N | inconclusive: 23.1 µM [inhibitor, single point] | – |
| CCOc1ccc(Oc2ccccc2NC(=O)CN2C(=O)NC3(CCCC3)C2=O)cc1 | inconclusive: 14.6 µM [inhibitor, single point] | – |
| Cc1cccc(C(=O)NNC(=O)CCCCC(=O)NNC(=O)c2cccc(C)c2)c1 | inactive | – |
| CNc1c(Br)cc(C=O)cc1Br | inconclusive: 35.5 µM [inhibitor, single point] | – |
| CCOC(=O)c1[nH]c2ccc(OC)cc2c1NC(=O)OC | inactive | – |
| CC(=O)Oc1cc2c(C(=O)NCCCN3CCOCC3)c(C)oc2c2ccccc12 | active: 14.6 µM | – |
| CCCCn1c(-c2ccc([N+](=O)[O-])cc2)n[nH]c1=S | inactive | – |
| C[C@@H]1CN([C@@H](C)CO)S(=O)(=O)c2ccc(Br)cc2O[C@@H]1CN(C)S(=O)(=O)c1cn(C)cn1 | inactive | – |
| CN1C(=O)/C(=C/c2ccc(-c3ccccc3[N+](=O)[O-])o2)SC1=Nc1ccc(Cl)c(C(=O)O)c1 | inconclusive: 32.6 µM [inhibitor, single point] | – |
| CC(=O)Nc1cc2c(cc1[N+](=O)[O-])-c1ccc(F)cc1C2 | inconclusive: 16.4 µM [inhibitor, single point] | – |
| COc1ccccc1C(NC(=O)CC(C)C)c1c(O)ccc2ccccc12 (stereo unspecified) | inconclusive: 25.9 µM [inhibitor, single point] | – |
| COc1cc(/C=C/C(=O)N2CCN(CC(O)COc3ccccc3)CC2)cc(OC)c1OC (stereo unspecified) | inconclusive: 29.1 µM [inhibitor, single point] | – |
| O=C(Nc1ccccc1C(=O)Nc1nnc(C(F)(F)F)s1)c1ccccc1Cl | inconclusive: 29.1 µM [inhibitor, single point] | – |
| CS(=O)(=O)c1ccc(C(=O)N2CCN(Cc3ccccc3)CC2)cc1 | inactive | – |
| CC(C)CCNC(=O)c1csc2c1CCCCC2 | inactive | – |
| COc1ccc(C(=O)N/C(=C\c2cn(S(=O)(=O)N(C)C)c3ccccc23)C(=O)N2CCN(C)CC2)cc1OC | inactive | – |

| SMILES | Potency | activity change, negative = growth inhibition |
| --- | --- | --- |
| CCN(c1ccccc1)S(=O)(=O)c1ccc(Cl)c(NC(=O)CNC(C)c2ccccc2)c1 (stereo unspecified) | active: 20.6 µM | – |
| Cc1ccc(CNC(=O)CCNC(=O)N2CCn3c2nc2ccccc23)cc1 | inactive | – |
| CC(=C\C(=O)O)/C(=C/c1ccc(C)o1)C(=O)O | active: 14.6 µM | – |
| Cc1cccc(-c2sc(Nc3ccccc3)n[n+]2-c2ccccc2)c1 | inconclusive: 29.1 µM [inhibitor, single point] | – |
| CCC/C=C/c1ccc(CN2C(C)C(=O)N(Cc3cn(Cc4ccco4)nn3)CCS2(=O)=O)cc1 (stereo unspecified) | inconclusive: 20.6 µM [inhibitor, single point] | – |
| O=c1[nH]nc(CNc2ccc(O)cc2)c2ccccc12 | inconclusive: 18.4 µM [inhibitor, single point] | – |
| O=C(c1ccccc1)c1ncc[nH]1 | inactive | – |
| Cc1cc(SCC(=O)N/N=C/c2ccc(O)cc2O)nc2ccccc12 | inconclusive: 25.9 µM [inhibitor, single point] | – |
| Cc1cc(C)c2c(=O)[nH]cnc2n1 | inconclusive: 18.4 µM [inhibitor, single point] | – |
| Cc1cc(=O)[nH]c(SCc2cccc3ccccc23)n1 | inactive | – |
| C[C@@H]1CN([C@@H](C)CO)C(=O)CCCn2nncc2CO[C@@H]1CN(C)C(=O)Nc1ccc(C(C)(C)C)cc1 | inactive | – |
| Cc1cc(CN(C)C(=O)CC2C(=O)NCCN2Cc2c(F)cccc2Cl)n[nH]1 (stereo unspecified) | inactive | – |
| C=CCn1c(COc2ccc3c(c2)CCCC3)nnc1SCC(=O)Nc1cccc(SC)c1 | inconclusive: 29.1 µM [inhibitor, single point] | – |
| CCOc1cccc(/C=N/NC(=O)c2cc(C3CC3)[nH]n2)c1O | inconclusive: 29.1 µM [inhibitor, single point] | – |
| O=C(Nc1cccc(S(=O)(=O)N2CCCCCC2)c1)C1=COCCO1 | inconclusive: 29.1 µM [inhibitor, single point] | – |
| S=C(NCc1ccco1)Nc1cccc(Cl)c1Cl | inactive | – |
| COc1ccc(CCOC(=O)c2cccc(NC(C)=O)c2)cc1 | inconclusive: 20.6 µM [inhibitor, partial curve] | – |
| Cc1ccc(-n2nc3c(N4CCC(C(=O)NCCc5ccccc5C)CC4)nnc(C)c3c2C)cc1 | active: 6.51 µM and active: 16.4 µM | – |
| Cc1nc2c(sc3nc(N4CCOCC4)c4c(c32)CC(C)(C)OC4)c(-c2ccc(Cl)cc2)c1C(=O)O | inconclusive: 29.1 µM [inhibitor, single point] | – |
| Cc1ccc(CN2CCN(C3CCN(C(=O)c4ccc(C)cc4)CC3)C(=O)C2=O)cc1 | inactive | – |
| CC(C)(C)c1cc(C(C)(C)C)c2oc(=O)c(-c3nc4ccc(C(=O)O)cc4[nH]3)cc2c1 | inconclusive: 18.4 µM [inhibitor, single point] | – |
| COc1ccc(N(CC(=O)N2CCN(Cc3ccccc3)CC2)S(C)(=O)=O)cc1OC | inactive | – |
| Cn1c(/C(C#N)=C/C2CC=CCC2)nc2ccccc21 (stereo unspecified) | inconclusive: 29.1 µM [inhibitor, single point] | – |
